According to PubChem BioAssay AID686978 (National Center for Advancing Translational Sciences (NCATS), 2013):
Among all 420,000 compounds or so, about 64,000 (15%) were called active. Inconclusive results, whose numbers are uncertain, are shown with a selection of clear calls. Calls come from the whole dose curve; as a rule, active = well fitted inhibition curve with a large enough effect; inconclusive = small, poorly fitted or top-dose-only effect; inactive = flat fitted curve, though single readings scatter. Potencies of inconclusive entries are left out as doubtful fits.
% is set by controls: 0 for no effect and ±100 for the full control effect; potency is the fitted concentration of half-maximal effect; tags give direction and shape of the fitted curve.

Experiment: qHTS for Inhibitors of human tyrosyl-DNA phosphodiesterase 1 (TDP1): qHTS in cells in absence of CPT; note: nearly all actives have a fitted effect of over 55% in size
Conditions: DT40 Tdp1-/- hTDP1 cells, no CPT, ATP luminescence, 48 h; activity change, negative = growth inhibition: at 46.2 µM (top of the series) unless noted
Method in brief: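 Growth kinetics read by CellTiter-Glo luminescence after ≥48 hr at 37 °C. Cells: DT40 Tdp1-/- stably carrying human TDP1, 400 per well, compound exposure in the absence of CPT (DMSO vehicle).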
For `NC(=O)C1CCN(CC(=O)Nc2nc(-c3ccccc3)cs2)CC1`, the Potency was “inactive”. With `O=C(CSc1ccc2c(c1)OCCO2)NCCc1ccc(Cl)cc1Cl` the Potency was inconclusive [inhibitor, partial curve]. In the case of `Fc1cc(F)c2ncc3c(-c4ccccc4)nn(-c4cccc(Cl)c4)c3c2c1`, the Potency is reported as “inactive”. In the case of `Cc1ccc(NC(=O)CCN2CCC(Cc3ccccc3)CC2)cc1`, the Potency is reported as inconclusive [inhibitor, single point]. For `COc1ccc(C(C(=O)NC2CCCC2)n2c(Cc3cc(F)cc(F)c3)nc3ccccc32)cc1` (stereo not given), the Potency was inconclusive [inhibitor, single point]. In the case of `COc1ccc(-c2cc(C(F)(F)F)nc(-n3nc(C(F)(F)F)cc3C)n2)cc1`, the Potency is reported as active: 13 µM. For `COc1ccc2cc(C(=O)C3CCCN(C(=O)CCc4cnn(C)c4)C3)ccc2c1` (stereo not given), the Potency was inconclusive [inhibitor, single point]. In the case of `Cc1c(CC(=O)N2CCC(O)CC2)c(=O)oc2cc3c(cc12)CCC1(CCCCC1)O3`, the Potency is reported as inconclusive [inhibitor, single point]. In the case of `Cc1ccc(S(=O)(=O)N(CC(=O)N(C(C)C)C(C)C)C(=O)N2CCN(C)CC2)cc1`, the Potency is reported as “inactive”. For `COc1ccc(Cl)cc1NC(=O)C/C(C)=N/NC(=O)C(=O)NCc1ccccc1`, the Potency was “inactive”. For `COc1ccc(CNC(=O)c2sc3nc4c(c(C(F)(F)F)c3c2N)CCC4)cc1OC`, the Potency was active: 16.4 µM. In the case of `COC(=O)c1sc(NC(=O)COc2cccc3ccccc23)nc1C`, the Potency is reported as inconclusive [inhibitor, partial curve, poor fit]. With `O=[N+]([O-])c1cccc(NC(=S)Nc2nc(-c3ccccc3Cl)cs2)c1` the Potency was active: 18.4 µM. With `Cc1ccc(CNC(=O)COC(=O)c2cc3c(s2)CCC(C)C3)cc1` (stereo not given) the Potency was inconclusive [inhibitor, single point]. In the case of `CCCCNc1oc(-c2cccs2)nc1S(=O)(=O)c1ccccc1`, the Potency is reported as inconclusive [inhibitor, single point]. For `Cc1ccccc1OCC(=O)Nc1cccc(S(=O)(=O)NC2=NCCCCC2)c1`, the Potency was inconclusive [inhibitor, single point]. For `CCc1ccc(-n2c(N3CCN(c4cccc(Cl)c4)CC3)nc3ccccc3c2=O)cc1`, the Potency was active: 8.2 µM. For `O=C(CCn1nc(-c2ccccc2)ccc1=O)N1CCN(c2ccccn2)CC1`, the Potency was “inactive”. In the case of `COc1ccc(Cl)cc1-c1nc(SCC(=O)NC(C)(C)C)n[nH]1`, the Potency is reported as inconclusive [inhibitor, full curve, poor fit]. In the case of `Cc1ccc(NC(=O)N(Cc2cc3cc(C)cc(C)c3[nH]c2=O)CC2COCCO2)cc1` (stereo not given), the Potency is reported as inconclusive [inhibitor, single point]. With `O=C(CSc1ccc2nnc(-c3ccccc3)n2n1)NCc1ccco1` the Potency was “inactive”. In the case of `Cc1c(C(=O)N2CCN(c3ccc([N+](=O)[O-])cc3)CC2)sc2ncn(CC(=O)N3CCOCC3)c(=O)c12`, the Potency is reported as inconclusive [inhibitor, single point]. With `O=C(OCC1COC(c2ccccc2)(c2ccccc2)O1)c1ccccc1` (stereo not given) the Potency was “inactive”. For `COc1cc(OC)cc(C(=O)N[C@H](C(=O)NC23CC4CC(CC(C4)C2)C3)C(C)C)c1`, the Potency was inconclusive [inhibitor, single point]. With `CCN(CC)CCNS(=O)(=O)c1ccc(OC)c(Br)c1` the Potency was “inactive”. With `CC(C)C(=O)Nc1ccc2c3c(cccc13)CC2` the Potency was “inactive”. In the case of `Cc1ccc(-n2c(SCC(=O)N3CCOCC3)nnc2-c2ccncc2)cc1C`, the Potency is reported as “inactive”. With `COc1cc(Cl)c(C)cc1NC(=O)COC(=O)c1cc(SC)ccc1Cl` the Potency was “inactive”. In the case of `COc1cccc(NC(=O)CSC2=C(C#N)C(c3ccco3)C3=C(CCCC3=O)N2)c1` (stereo not given), the Potency is reported as “inactive”. For `CCc1cccc(C)c1NC(=O)CSc1n[nH]c(N)n1`, the Potency was “inactive”. For `Cc1cc(NC(=O)CCC(=O)N(c2ccccc2)C2(C(=O)NC3CCCCC3)CCCC2)no1`, the Potency was “inactive”. In the case of `CC(=O)c1c(C)[nH]c(C(=O)NCCC2=CCCCC2)c1C`, the Potency is reported as inconclusive [inhibitor, single point]. In the case of `O=C(NCC(c1cccs1)S(=O)(=O)c1cccs1)c1ccc(Cl)cc1` (stereo not given), the Potency is reported as active: 18.4 µM. In the case of `COc1ccc(-c2sc3cc(OC)c(OC)cc3c2C#CC(C)(C)O)cc1`, the Potency is reported as inconclusive [inhibitor, single point]. For `CCOC(=O)c1cc(C#N)c(N2CCN(C(=O)c3cccc(C(F)(F)F)c3)CC2)nc1C(F)(F)F`, the Potency was active: 14.6 µM. In the case of `Cc1ccc(S(=O)(=O)N2CCOC2CNC(=O)C(=O)NCc2ccc(Cl)cc2)cc1` (stereo not given), the Potency is reported as active: 20.6 µM. In the case of `Cc1ccc(-n2c(SCC(=O)NCc3ccccc3)nc3n[nH]c(C)c3c2=N)cc1Cl`, the Potency is reported as active: 2.31 µM. In the case of `CS(=O)(=O)c1cccc(-c2nnc(NC(=O)c3ccc(S(=O)(=O)N4CCCC4)cc3)o2)c1`, the Potency is reported as “inactive”. For `CN(C)S(=O)(=O)n1cc(/C=C(\NC(=O)c2ccccc2F)C(=O)N2CCCC2)c2ccccc21`, the Potency was inconclusive [inhibitor, single point]. For `Cn1c(O)c(C=NCCCCCC(=O)O)c(=O)n(C)c1=O`, the Potency was “inactive”. In the case of `Cn1cc(-c2nc3cnc(N4CCNCC4)nc3n(Cc3ccc(F)cc3)c2=O)c2ccccc21`, the Potency is reported as active: 7.31 µM. In the case of `O=C(NC1CC1)C1=C[C@H](c2ccc3c(c2)OCO3)C[C@H](OCc2ccc(CO)cc2)O1`, the Potency is reported as inconclusive [inhibitor, partial curve]. In the case of `CC(=O)N1CCc2cc(Br)cc(S(=O)(=O)N3CCC(C)CC3)c21`, the Potency is reported as “inactive”. In the case of `Cc1ccccc1Nc1nc(N)nc(CN(C)c2ccccc2)n1`, the Potency is reported as inconclusive [inhibitor, single point]. With `CN1C(=S)SC(N(O)C(=O)Nc2ccc(Cl)c(Cl)c2)C1(C)C` (stereo not given) the Potency was active: 16.4 µM. For `COc1ccc(CNC(=O)c2ccc(-c3ccccc3)cc2)cc1`, the Potency was “inactive”. In the case of `Cc1c(C(=O)Nc2cccc(Cl)c2)c2ccccn2c1CCc1ccncc1`, the Potency is reported as active: 23.1 µM. For `CC(Oc1ccc(F)cc1F)C(=O)NNC(=S)NCC1CCCO1` (stereo not given), the Potency was “inactive”. In the case of `CC(C)c1cnc2c(c1SCc1cccc(F)c1)c(=O)n(C)c(=O)n2C`, the Potency is reported as active: 23.1 µM. For `Cc1ccccc1OCCN1C(=O)C(=O)c2cccc(C)c21`, the Potency was active: 0.92 µM. For `COc1cccc(CN(CC(=O)NC2CCCC2)C(=O)CCC(=O)Nc2cc(C)on2)c1`, the Potency was “inactive”. In the case of `Cc1ccccc1-c1nc(CS(=O)(=O)CC(=O)Nc2cc(F)ccc2F)c(C)o1`, the Potency is reported as active: 20.6 µM. With `O=C1C=CC(=Nc2ccc3c(c2)Cc2ccccc2-3)O1` the Potency was “inactive”. For `CCOc1ccc2c(c1)C(=NNC(=O)c1ccccn1)c1cc(OCC)ccc1-2`, the activity change, negative = growth inhibition was inconclusive: -1.11% [inhibitor]. For `CCOC(=O)N1CCN(C(=O)C2CCN(S(=O)(=O)c3cc(Cl)ccc3Cl)CC2)CC1`, the Potency was inconclusive [inhibitor, partial curve]. For `CN(C(=O)c1cccc(COc2ccc(Cl)cc2Cl)c1)c1ccccc1`, the Potency was inconclusive [inhibitor, partial curve, poor fit]. In the case of `CCCC(=O)Nc1nnc(S(=O)(=O)N(CC(C)C)c2ccccc2)s1`, the Potency is reported as “inactive”. In the case of `COCC(C)n1c(C)cc(C(=O)CN2C(=O)NC3(CCCCC3C)C2=O)c1C` (stereo not given), the Potency is reported as active: 20.6 µM. For `CCOc1ccc(NC(=O)CCCn2c(=S)[nH]c3ccsc3c2=O)cc1`, the Potency was “inactive”. In the case of `CN(C)C(=S)SCC(=O)NC(=O)NC(C)(C)C`, the activity change, negative = growth inhibition is reported as inconclusive: -2.75% [inhibitor]. For `CCCCCC1=CCC/C1=N\NC(=O)c1ccc2c(c1)OCO2`, the Potency was inconclusive [inhibitor, single point]. In the case of `CCn1c(COc2ccc(C)cc2)nc2ccccc21`, the Potency is reported as inconclusive [inhibitor, single point]. With `CNC(=O)NC(=O)COC(=O)c1ccc(-n2c(C)ccc2C)cc1` the Potency was inconclusive [inhibitor, single point]. For `COC(=O)C1=CN(c2ccc(C)cc2)C(N)=C(C#N)C1c1ccccc1F` (stereo not given), the Potency was inconclusive [inhibitor, single point]. With `CCc1ccc(OCC(=O)N/N=C/c2cc([N+](=O)[O-])ccc2N2CCCCCC2)cc1` the Potency was inconclusive [inhibitor, single point]. For `Fc1cccc(-c2cc3nc4c(c(N5CCOCC5)n3n2)CCCC4)c1`, the Potency was inconclusive [inhibitor, partial curve, poor fit]. In the case of `OCCC1CN(Cc2ccc3nsnc3c2)CCN1C1CCCC1` (stereo not given), the Potency is reported as “inactive”. For `COc1cccc(/C=C(\C#N)c2nc3ccc(C)cc3[nH]2)c1OCC(=O)O`, the Potency was “inactive”. With `N#CN=c1snc(-c2ccccc2)n1-c1ccc(Br)cc1` the Potency was inconclusive [inhibitor, single point]. With `COc1cc(OC)c(OC)cc1/C=N/NC(=O)CSc1ccccc1F` the Potency was “inactive”. For `CC(=O)OC1CC[C@@]2(C)C(CC[C@@]3(C)C2CC=C2C4CC(C)(C)CC[C@]4(C)CC[C@@]23C)C1(C)C` (stereo not given in full), the Potency was “inactive”. In the case of `O=C(CN1CCOCC1)Nc1c(C(=O)C2CC2)oc2ccccc12`, the Potency is reported as inconclusive [inhibitor, partial curve, poor fit]. With `COc1ccccc1Cn1nnc2c(=O)[nH]c(C3CCN(C(=O)c4ccccc4Cl)CC3)nc21` the Potency was inconclusive [inhibitor, single point]. For `CN(C)Cc1ccccc1-c1nc(NCc2cccs2)c2ccccc2n1`, the Potency was active: 20.6 µM. For `Cc1noc(-c2ccc(N3CCC(C)CC3)c([N+](=O)[O-])c2)n1`, the Potency was inconclusive [inhibitor, single point].
